Assay results reported in the supplement of paper PMC3334620.
In all, about 33,000 sequences were measured (“E-score (-0.5 to 0.5)”: median about -0.021, highest 2% from about 0.32 on). The list shows a part of the results.

Biological target: T1, Zap1 (UniProt P47043)
T1 sequence: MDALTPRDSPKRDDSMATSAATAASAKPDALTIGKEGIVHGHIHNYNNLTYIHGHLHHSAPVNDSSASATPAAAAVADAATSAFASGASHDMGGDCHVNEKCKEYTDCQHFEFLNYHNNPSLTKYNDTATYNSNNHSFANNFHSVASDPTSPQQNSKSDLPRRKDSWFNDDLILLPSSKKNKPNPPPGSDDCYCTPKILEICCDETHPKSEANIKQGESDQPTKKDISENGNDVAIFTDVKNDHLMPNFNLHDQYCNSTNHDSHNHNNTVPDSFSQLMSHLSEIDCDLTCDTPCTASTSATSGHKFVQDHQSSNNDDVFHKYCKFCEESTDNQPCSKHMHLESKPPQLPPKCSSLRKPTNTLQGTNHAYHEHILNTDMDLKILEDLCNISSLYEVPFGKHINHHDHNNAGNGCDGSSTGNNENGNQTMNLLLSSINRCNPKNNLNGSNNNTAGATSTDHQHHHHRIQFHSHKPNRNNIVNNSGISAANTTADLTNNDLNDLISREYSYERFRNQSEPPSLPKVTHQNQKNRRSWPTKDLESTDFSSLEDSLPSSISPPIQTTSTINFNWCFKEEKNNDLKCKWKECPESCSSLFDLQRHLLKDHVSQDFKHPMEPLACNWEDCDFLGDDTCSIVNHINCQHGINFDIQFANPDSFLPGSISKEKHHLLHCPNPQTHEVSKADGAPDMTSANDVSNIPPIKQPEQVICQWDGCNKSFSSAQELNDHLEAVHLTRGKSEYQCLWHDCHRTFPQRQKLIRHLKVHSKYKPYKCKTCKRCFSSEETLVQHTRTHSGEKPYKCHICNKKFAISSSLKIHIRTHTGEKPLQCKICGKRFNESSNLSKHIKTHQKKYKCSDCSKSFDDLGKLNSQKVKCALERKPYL
Test: PBM E-score (8-mer binding enrichment) (E-score (-0.5 to 0.5)); higher = stronger / more preferred TF binding; most listed sequences are background and not binding sites
Settings: protein concentration: 200 nM; construct: GST-full length
Method in brief: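 E-scores (a modified Wilcoxon-Mann-Whitney statistic) were assigned by the Universal PBM Analysis Suite to every ungapped eight-base word pooled with its reverse complement. The input came from universal all-10-mer Agilent arrays made double-stranded by primer extension and probed with GST-tagged yeast transcription factors at about 100-200 nM. Fluorescent anti-GST detected bound protein, and masliner normalised the scans.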

| Sequence | PBM E-score |
| --- | --- |
| ATGAGAAG | -0.0712 |
| AGGCGCCT | -0.193 |
| ACGCGAGC | -0.0881 |
| GAGGTCCA | 0.0152 |
| CAAACTGG | -0.111 |
| ACGGGGAT | -0.0753 |
| CACCCTCG | 0.234 |
| AACGAATA | -0.00355 |
| GCAGTAGC | -0.194 |
| TTGGAAAA | 0.109 |
| AGGCAATA | -0.152 |
| CTTGGGTC | 0.00951 |
| CGAGGCCG | -0.0899 |
| AAGTCTGA | -0.154 |
| CTAGGGAC | -0.0705 |
| CAGCCATA | -0.198 |
| GTGTCTCA | -0.115 |
| CACAGAAC | -0.203 |
| AATAATAT | 0.144 |
| CTTGTCAA | -0.0325 |
| AGCCATTC | -0.0998 |
| AGGAGAAG | -0.167 |
| AGTACGAC | 0.0168 |
| GACATCTA | 0.0356 |
| CCACATGG | -0.0835 |

| Sequence | PBM E-score |
| --- | --- |
| CACGTGTA | -0.0824 |
| CGGCCCGA | -0.0313 |
| CAACCCCC | -0.212 |
| CAACACGA | 0.0168 |
| CGAATAAG | -0.0488 |
| CAAGTCCA | -0.0774 |
| AACGCAAG | -0.0202 |
| GTATCGTA | 0.0591 |
| TCGACCGA | -0.19 |
| ACCACGCC | -0.0298 |
| GCCTACGA | -0.0547 |
| AAGCAAGA | -0.153 |
| ACCATTGA | 0.117 |
| CTTATAGA | 0.0117 |
| TAAGTCAA | -0.0991 |
| GACAATCC | 0.0476 |
| ATGGTTTC | 0.138 |
| CAATTGGA | -0.1 |
| ACCGGGCG | -0.121 |
| AGTACTGA | -0.0168 |
| ATGCTAGC | -0.159 |
| AATCAGTC | -0.107 |
| ACTATCAG | -0.067 |
| CAGACCGC | 0.14 |
| CACATTCA | -0.104 |

| Sequence | PBM E-score |
| --- | --- |
| AGATCTCG | -0.0873 |
| CCAAAAAC | 0.256 |
| CGGTGGGA | -0.0865 |
| CCCACAAC | 0.233 |
| ATAGGCCA | 0.0751 |
| CACTCGCA | -0.0876 |
| AAAACTCT | -0.069 |
| ATTCACTG | -0.136 |
| AGCGTGCA | -0.151 |
| CTAATGGC | 0.134 |
| CACCGGGG | -0.137 |
| GATACTGC | -0.126 |
| AGACGTCC | -0.0654 |
| ATCTGAAA | 0.00151 |
| CCCTGTAG | 0.14 |
| CGCTCGAA | -0.152 |
| ACAAACCG | 0.027 |
| GACAAGTA | -0.0947 |
| AAACCACA | 0.184 |
| AGAGCTTC | -0.0654 |
| AGGTCCTG | 0.0385 |
| ACGAAACG | -0.147 |
| GGTGGATA | -0.0334 |
| CACTCAAC | 0.136 |
| TAGATAAA | 0.16 |

| Sequence | PBM E-score |
| --- | --- |
| GACTAACC | 0.14 |
| GCTGCTTA | 0.0693 |
| ACATAGTG | -0.0367 |
| CCAATTGG | 0.21 |
| CCGTTTTA | 0.0249 |
| CGTTTATA | 0.0137 |
| AGAAGATA | 0.0269 |
| CCATTAAA | 0.157 |
| CTCCGCAA | -0.098 |
| CACTGGCC | -0.122 |
| CCTCGAGG | 0.331 |
| CTTCCGGC | 0.0477 |
| CGATACTA | 0.0625 |
| AGCTTCGG | -0.19 |
| ATGATTGC | 0.0384 |
| TGATGGCA | -0.242 |
| CACTATCG | -0.187 |
| CATCTGAG | 0.0478 |
| AGGGGTGC | -0.162 |
| ACGCAGCA | -0.145 |
| GATAAGCA | -0.0852 |
| AGGCACAC | -0.173 |
| ACGTGACC | 0.249 |
| GTGAGAGA | -0.135 |
| GAATCGGC | -0.15 |

| Sequence | PBM E-score |
| --- | --- |
| CACCCATA | 0.034 |
| GATGGACA | 0.0797 |
| CAAAGACC | 0.268 |
| CCAGGTTA | 0.382 |
| GTTCAAAA | 0.0198 |
| CTATGATC | -0.146 |
| ACCCTGAG | 0.378 |
| GACGCACA | -0.0128 |
| ATAACTAG | 0.109 |
| ACCGGCTC | -0.103 |
| ACACCTCA | 0.00676 |
| ACTCTCGG | 0.0208 |
| TCCGAAAA | 0.126 |
| ATGATTCA | -0.0405 |
| CCGTCATC | -0.199 |
| GAGCTGCA | -0.252 |
| AAGTTCGT | 0.0319 |
| AGATTAGA | -0.101 |
| ATGACCTA | 0.304 |
| CGCGCCCC | -0.0464 |
| ACTAATCT | -0.175 |
| AGGCTGGA | -0.23 |
| CATCCGCC | 0.00204 |
| ACACGATC | -0.0924 |
| CTTTATAC | 0.0485 |

| Sequence | PBM E-score |
| --- | --- |
| ACAAGTAA | 0.0362 |
| CGCCAGAC | -0.0527 |
| CAGACTCC | -0.35 |
| GAATACCC | 0.229 |
| GCCGGAGA | -0.196 |
| CTGCGCTA | -0.279 |
| CCATGACG | 0.0693 |
| GCCTCCAA | -0.00173 |
| AGACGAGC | -0.31 |
| CCGCATCG | -0.129 |
| TACGAGAA | 0.0927 |
| TCGCGAAA | 0.0948 |
| GCTTTTAA | -0.0452 |
| TGAAATAA | 0.0504 |
| CTAAAATC | 0.0541 |
| AACAGGAG | -0.00778 |
| CGCGTGAC | 0.0439 |
| GTGGTACA | 0.146 |
| ACCGCTTG | 0.205 |
| CAACGGGA | -0.132 |
| AAGGCAAA | 0.0479 |
| ACGTTCTA | 0.0965 |
| AGATTTCC | 0.0606 |
| CGACATCC | -0.0664 |
| GCCGACTA | -0.0789 |

| Sequence | PBM E-score |
| --- | --- |
| CTGGTCTA | -0.187 |
| AGTAGAAT | -0.00836 |
| AGTAGCGA | -0.0593 |
| AGTCCGGA | 0.0462 |
| CCAATAAA | 0.173 |
| GACCTGTA | 0.0243 |
| CTGGTTGA | -0.165 |
| GGAAGCTA | -0.14 |
| CGGTATGC | -0.233 |
| CAGTATGA | 0.0911 |
| ACGGCATG | -0.155 |
| AGACACAG | 0.011 |
| CACCACGA | 0.142 |
| AAAATAAT | 0.201 |
| AAAAGAAC | 0.1 |
| CTCGATAA | 0.0638 |
| CCCCGTCG | -0.123 |
| AGACACAT | -0.0603 |
| GCACAGAC | -0.0948 |
| CGAAGGTA | 0.236 |
| GTAGCTGA | -0.14 |
| ACATTTGG | -0.158 |
